Experimental data reported in PubChem BioAssay AID2100 (National Center for Advancing Translational Sciences (NCATS), 2009).
Values joined by “and” are separate entries in the source; they are usually repeats but may differ in a detail not shown here. Equal values may be shown once. In all, about 300,000 compounds went through this assay and about 1,200 (0.4%) were called active. This list was built around the results that the source calls inconclusive (neither active nor inactive); the mix of calls is not that of the screen. Calls follow the shape of the dose curve; as a rule, active = well fitted inhibition curve with a large enough effect; inconclusive = small, poorly fitted or top-dose-only effect, or another doubt; inactive = no such curve, though single readings can be large or run the other way. Where the call is inconclusive, the potency comes from a doubtful curve fit.

Target: Lysosomal alpha-glucosidase (Homo sapiens) (UniProt P10253)
Assay: qHTS Assay for Inhibitors and Activators of Human alpha-Glucosidase Cleavage of Glycogen
Settings: recombinant GAA, glycogen substrate, Amplex Red glucose oxidase fluorescence; series mostly up to 76.4 µM
Summary of the method: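 Recombinant enzyme (4 nM final) with compounds titrated up to 77 uM and bovine liver glycogen (30 ug) in citrate pH 5.0, 0.01% Tween-20, 37 C 40 min. Released glucose detected by Amplex Red/glucose oxidase (Ex 573/Em 610); AC50 from Hill fits.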
Potency is read from the fitted curve at half-maximal effect.

Row | Compound | Potency
1 | CC(C)CC(C(=O)Nc1oc(-c2ccco2)c(-c2ccco2)c1C#N)N1C(=O)c2ccccc2C1=O (configuration not stated) | inconclusive: 15.8 µM [inhibitor, partial curve]
2 | Cc1sc(-c2ccccn2)nc1OC(=O)c1ccc(F)cc1F | inconclusive: 35.5 µM [inhibitor, partial curve]
3 | CCOC(=O)c1cnc2ccc(OC)cc2c1Nc1ccc(N2CCN(C)CC2)cc1 | inconclusive: 50.1 µM [inhibitor, single point]
4 | COc1ccc(Nc2nc(-c3ccc(OC)cc3)c(CCC(=O)O)s2)cc1 | inconclusive: 39.8 µM [inhibitor, partial curve]
5 | CC1=C/C(=C/N(C)c2ccccc2)C(=O)S1 | inconclusive: 35.2 µM [inhibitor, single point]
6 | CCOC(=O)c1c(C)oc2c1c(C(c1cccnc1)N1CCCCC1)c(O)c1ccccc12 (configuration not stated) | inconclusive: 35.2 µM [inhibitor, partial curve]
7 | CCCCNCc1cccn1-c1ccccc1 | inconclusive: 8.84 µM [inhibitor, single point]
8 | O=c1[nH]c2ccc(NS(=O)(=O)c3ccc(Cl)cc3)cc2[nH]1 | inconclusive: 35.5 µM [inhibitor, partial curve]
9 | NN/C(=C\[N+](=O)[O-])Nc1ccccc1 | inconclusive: 39.8 µM [inhibitor, single point]
10 | COc1ccc(C2=[N+]([O-])C(C)(C)N(O)C2(C)C)cc1 | inconclusive: 9.92 µM [inhibitor, partial curve]
11 | Fc1ccc(/C=N/n2c(-c3cccs3)n[nH]c2=S)cc1 | inconclusive: 31.6 µM [inhibitor, partial curve]
12 | O=C(COc1ccccc1[N+](=O)[O-])N/N=C/c1ccc(O)c([N+](=O)[O-])c1 | inactive
13 | Cc1c(O)ccc(/C(Cc2ccc3ccccc3n2)=N\O)c1O | inconclusive: 39.5 µM [inhibitor, single point]
14 | Cc1ccc(-c2nc3cc(C(C)C)ccc3o2)cc1NC(=O)c1cc([N+](=O)[O-])ccc1N1CCOCC1 | inactive
15 | CCOC(=O)c1cnc2ccc(C)cc2c1Nc1ccc(N2CCOCC2)cc1 | inconclusive: 22.4 µM [inhibitor, partial curve]
16 | Cc1cc(C)cc(N2CCn3c2nc2c3c(=O)n(CCCc3ccccc3)c(=O)n2C)c1 | inactive
17 | CCOC(=O)NC1(NC2CCCCC2)Oc2ccccc2O1 | active: 8.91 µM
18 | COc1ccc(N(CC(=O)Nc2nc3ccc(C)cc3s2)S(=O)(=O)c2c(C)nn(C)c2C)cc1 | inconclusive: 35.5 µM [inhibitor, partial curve, poor fit]
19 | Cc1cc(O)ccc1Nc1nc(-c2cccnc2)cs1 | inactive
20 | C/C(=N\Nc1nc2ccccc2[nH]1)c1ccc2c(c1)OCO2 | inconclusive: 5.62 µM [inhibitor, full curve]
21 | CCN1CCCC(NC(=O)c2scc3c2CCCC3)C1 (configuration not stated) | inconclusive: 15.8 µM [inhibitor, partial curve]

Row | Compound | Potency
22 | COc1ccc(S(=O)(=O)NNC(=O)c2cccs2)cc1 | inconclusive: 19.8 µM [inhibitor, partial curve]
23 | C=CCn1c(=S)[nH]c2sc3c(c2c1=O)CCC3 | inconclusive: 50.1 µM [inhibitor, single point]
24 | Cc1ccn2c(Nc3ccccc3C)c(-c3ccccc3)nc2c1 | inconclusive: 8.91 µM [inhibitor, full curve]
25 | O=C(CC12CC3CC(CC(Br)(C3)C1)C2)Nc1cccc(S(=O)(=O)NC2=NCCC2)c1 | inconclusive: 3.52 µM [inhibitor, partial curve]
26 | O=C(NNC(=S)Nc1ccccc1)NNC(=S)Nc1ccccc1 | inconclusive: 7.94 µM [inhibitor, partial curve]
27 | Cc1ccc(NCc2cccn2-c2nnc(N3CCC(C(=O)NCc4ccc(F)cc4)CC3)s2)cc1 | inactive
28 | O=C(Nc1ccc2nc(SCC(=O)N3CCOCC3)sc2c1)c1ccccc1Cl | inactive
29 | O=C(O)CCSc1ccc2ccccc2n1 | inactive
30 | Cc1ccccc1Nc1c(-c2ccc(N3CCOCC3)cc2)nc2ccc(Cl)cn12 | inconclusive: 6.31 µM [inhibitor, full curve]
31 | Cc1nnc(N/N=C/c2cccc(C(F)(F)F)c2)n1N | inconclusive: 14 µM [inhibitor, partial curve]
32 | COc1cc(NC(=O)C/C(C)=N/NC(=O)c2ccccn2)c(OC)cc1Cl | inconclusive: 7.94 µM [inhibitor, full curve]
33 | CCOC(=O)c1[nH]c2ccc(C)cc2c1N | inconclusive: 50.1 µM [inhibitor, single point]
34 | Cc1cc(C)cc(NC(=O)CCN2C(=O)c3ccccc3Sc3ncccc32)c1 | inactive
35 | CCOC(=O)c1cnc2c(C)cccc2c1Nc1ccc(N2CCOCC2)cc1 | inconclusive: 7.08 µM [inhibitor, single point]
36 | Cc1ccc(Nc2c(-c3ccc(N4CCOCC4)cc3)nc3ncccn23)cc1C | inconclusive: 35.5 µM [inhibitor, single point] and inconclusive: 8.91 µM [inhibitor, full curve, poor fit]
37 | O=C(CCNC(=O)Cn1cnc2ccccc2c1=O)NCCC1=CCCCC1 | inconclusive: 50.1 µM [inhibitor, single point]
38 | Cc1ccc(CN2C(=O)CNC2=S)cc1 | inconclusive: 50.1 µM [inhibitor, single point]
39 | O=C(Nc1ccc(Cl)cc1)C(Cl)C(=O)c1ccccc1 (configuration not stated) | inconclusive: 35.5 µM [activator, single point]
40 | COc1cc(Cl)ccc1NC(=S)N(CCCN1CCOCC1)Cc1cn(C)c2ccccc12 | inactive
41 | Oc1ccc2ccccc2c1C=Nc1cc(C(F)(F)F)ccc1N1CCCC1 | inconclusive: 7.94 µM [inhibitor, full curve, poor fit]
42 | O=C(Cc1ccccc1F)N1CCC(c2nc3c(nnn3Cc3cccc(Cl)c3)c(=O)[nH]2)CC1 | inconclusive: 11.2 µM [inhibitor, single point]
